We go through 92 compounds from PubChem BioAssay AID360 (National Center for Advancing Translational Sciences (NCATS), 2006).

Hit rate of the full screen: of about 48,000 compounds, about 550 (1.1%) were called active. Roughly 4% stayed inconclusive and do not appear here. Rule as the data show it: active = potency below about 15 µM; inconclusive = mostly about 16 µM to 33 µM; inactive = weaker than that. The list shows a part of the results. Where only a bound is given, the exact number is not on record here.
Potency is read from the fitted curve at half-maximal effect.

The target of the assay is Lysosomal acid glucosylceramidase (Homo sapiens) (UniProt P04062). As to the kind of experiment: Glucocerebrosidase.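 Also: the screen sought inhibitors.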 To be noted: purified enzyme, resorufin glucoside fluorescence (screen aimed at inhibitors), 20 min. In a few lines: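 Wild-type enzyme at 0.2 nM final in 50mM citric acid/KH2PO4, 10mM sodium taurocholate, 0.01% tween-20, pH 5.9, with resorufin beta-D-glucopyranoside at 30 uM final. Compounds titrated, 20 min at RT, red fluorescence read; AC50 from titration.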
Sequence of UniProt P04062 (P04062 whole entry, looked up): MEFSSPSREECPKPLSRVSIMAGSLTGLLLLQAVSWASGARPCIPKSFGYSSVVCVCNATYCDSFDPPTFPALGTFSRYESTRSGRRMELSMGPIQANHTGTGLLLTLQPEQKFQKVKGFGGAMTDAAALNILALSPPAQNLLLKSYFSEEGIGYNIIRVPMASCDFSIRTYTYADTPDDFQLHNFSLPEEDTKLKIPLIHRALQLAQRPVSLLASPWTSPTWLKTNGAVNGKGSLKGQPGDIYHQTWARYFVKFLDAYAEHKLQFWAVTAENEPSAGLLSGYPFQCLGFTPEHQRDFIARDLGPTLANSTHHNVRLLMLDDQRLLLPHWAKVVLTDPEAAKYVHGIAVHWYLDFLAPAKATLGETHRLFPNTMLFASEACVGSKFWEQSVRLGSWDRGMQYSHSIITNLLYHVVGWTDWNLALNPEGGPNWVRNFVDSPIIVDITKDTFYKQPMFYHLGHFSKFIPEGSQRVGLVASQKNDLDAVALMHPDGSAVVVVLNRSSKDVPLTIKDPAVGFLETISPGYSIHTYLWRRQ
As to `Cc1ccc(NC(=O)C(C)N2C(=O)c3ccccc3C2=O)cc1` (configuration not stated), the Potency is inactive: > 76.9 µM.

For `Cc1ccc(C)c(CSc2nnc(-c3cccnc3)o2)c1`, the Potency was inactive: > 76.9 µM.

Take `O=C(Cc1c[nH]c2ccccc12)N1CCc2ccccc21`: the Potency is inactive: > 76.9 µM.

With `O=C(NCCCCCNC(=O)c1ccco1)c1ccco1`, the Potency was inactive: > 76.9 µM.

`Nn1cnn(Cc2ccccc2)c1=S`: the Potency is inactive: > 76.9 µM.

For `O=S(=O)(Nc1nc(CN2CCOCC2)nc2sc3c(c12)CCCC3)c1cc(F)ccc1F`, the Potency was inactive: > 15.4 µM.

Turning to `Cc1ccc(-c2cn3cccnc3n2)cc1NC(=O)c1ccc(Br)o1`, the Potency result was “inactive”.

Take `CCCn1nnc(NC(=O)c2sc3ccccc3c2Cl)n1`: the Potency is inactive: > 76.9 µM.

Consider `O=C(NCCCCNC(=O)C1CCCC1)C1CCCC1`, for which the Potency was inactive: > 76.9 µM.

For the compound `C=CCNC(=O)NC(=O)COC(=O)CCCSc1nc2ccccc2[nH]1`, the Potency was inactive: > 76.9 µM.

For the compound `Cc1cccc(-n2nnc(C(=O)NCc3ccccn3)c2N)c1`, the Potency is inactive: > 76.9 µM.

On to `CCOC(=O)c1c(C)[nH]c(C)c1C(=O)CSc1nnc(-c2cc(OC)c(OC)c(OC)c2)o1`, for which the Potency was inactive: > 76.9 µM.

As to `CC(=O)NC1=NC(=O)/C(=C/N2CCCCC2)S1`, the Potency is inactive: > 76.9 µM.

Consider `N#CC(C(=O)Nc1ccc(Cl)cc1)=C1Nc2ccccc2N1`, for which the Potency is inactive: > 76.9 µM.

For `CC(OC(=O)CN(C)S(=O)(=O)c1ccc(Cl)cc1)C(=O)Nc1ccc(N2CCOCC2)cc1` (configuration not stated), the Potency was inactive: > 76.9 µM.

As to `Cc1oc(-c2ccccc2)nc1C(=O)OCC(=O)NC(=O)NCC(C)C`, the Potency was inactive: > 76.9 µM.

For `COC(=O)c1c(NC(=O)COC(=O)Cn2cnc3ccccc32)sc(C)c1C`, the Potency was inactive: > 76.9 µM.

Take `O=C(Cn1c(C2CC2)nc2ccccc2c1=O)Nc1ccc(Br)cc1`: the Potency is inactive: > 76.9 µM.

Consider `Cn1c(=O)n(C)c2cc(NS(=O)(=O)c3ccc4c(c3)CCCC4)ccc21`, for which the Potency is inactive: > 76.9 µM.

For `COCCCn1c(SCC(=O)Nc2ccc3c(c2)OCCO3)nnc1-c1ccoc1C`, the Potency was inactive: > 76.9 µM.

In the case of `COCCNC(=O)C(c1ccccc1)N(CCOC)C(=O)Cn1nnc2ccccc21` (configuration not stated), the Potency is inactive: > 76.9 µM.

Regarding `CCOC(=O)C1CCCN(C(=O)CN2C(=O)C(CC)Oc3ccc(C)cc32)C1` (configuration not stated), the Potency is inactive: > 76.9 µM.

For `CCOC(=O)c1ccc(NC(=O)CN2CCN(c3ccccc3)CC2)cc1`, the Potency was inactive: > 76.9 µM.

`CCC1CCCCN1C(=O)Nc1ccc(F)cc1` (configuration not stated): the Potency is inactive: > 76.9 µM.

As for `COc1cccc(-n2nnc3c(=O)n(CC(=O)NC4CCCC4)cnc32)c1`, the Potency is inactive: > 76.9 µM.

In the case of `CCCNC(=O)N1CCN(c2ncccn2)CC1`, the Potency is inactive: > 76.9 µM.

As for `CC1CCN(C(c2cc3cc4c(cc3[nH]c2=O)OCO4)c2nnnn2CC2CCCO2)CC1` (configuration not stated), the Potency is inactive: > 76.9 µM.

In the case of `O=C(Nc1ccc2c(c1)nc1n2CCOC1)c1ccccc1`, the Potency was inactive: > 76.9 µM.

On to `O=C(c1ccc(COc2ccccc2Br)o1)N1CCCCCC1`, for which the Potency entry is “inactive”.

Regarding `CC(=O)c1cccc(NS(=O)(=O)c2c(C)n[nH]c2C)c1`, the Potency was inactive: > 76.9 µM.

With `COc1ccc(CN2C(=O)c3cccnc3C2Nc2cc(Cl)ccc2OC)cc1` (configuration not stated), the Potency is inactive: > 76.9 µM.

With `COc1ccc(OC)c(-c2cc(C(=O)NCCCn3ccnc3)no2)c1`, the Potency entry is “inactive”.

As to `O=C(Nc1ccccc1)c1ccc(F)c(S(=O)(=O)N2CCOCC2)c1`, the Potency was inactive: > 76.9 µM.

With `CCc1ccc2[nH]c(=O)c(C(c3nnnn3Cc3ccc(OC)cc3)N3CCOCC3)cc2c1` (configuration not stated), the Potency was inactive: > 76.9 µM.

Consider `N#Cc1cc2cc3c(cc2nc1N1CCOCC1)OCO3`, for which the Potency was inactive: > 76.9 µM.

Turning to `CCOC(=O)c1ccc(N2C(=O)CC(Sc3nc(O)c(CC)c(=O)[nH]3)C2=O)cc1` (configuration not stated), the Potency was inactive: > 76.9 µM.

In the case of `O=c1c2ccccc2nc(SCc2nnc(-c3ccccc3Br)o2)n1-c1ccccc1`, the Potency is inactive: > 76.9 µM.

As for `Cc1ccc(-c2nnc(SCC(=O)N3CCCc4ccccc43)n2N)cc1`, the Potency is inactive: > 76.9 µM.

With `CC(NC(=O)c1cc2ccccc2o1)C(=O)O` (configuration not stated), the Potency is inactive: > 76.9 µM.

For the compound `COc1ccc(N2CCCCn3c2nc2c3c(=O)[nH]c(=O)n2C)cc1`, the Potency is inactive: > 76.9 µM.

`Cc1ccc2c(CSc3nnc(C4CC4)n3N)cc(=O)oc2c1C`: the Potency is inactive: > 76.9 µM.

As for `CCOC(=O)c1cc(C(=O)OCC)c2cc(Br)ccc2n1`, the Potency is inactive: > 76.9 µM.

Take `CCn1c(SCCOc2ccc(OC)cc2)nnc1C(CO)NC(=O)c1ccc(OC)cc1` (configuration not stated): the Potency is inactive: > 76.9 µM.

Consider `O=C(CSc1nnc(CNC(=O)c2c(F)cccc2Cl)o1)Nc1ccc2c(c1)OCCO2`, for which the Potency is inactive: > 76.9 µM.

Take `OC(COCC1COc2ccccc2O1)CN1CCc2ccccc2C1` (configuration not stated): the Potency is inactive: > 76.9 µM.

In the case of `Cn1c(=O)c2c(-c3ccccc3)n(CCCN3CCOCC3)cc2n(C)c1=O`, the Potency is inactive: > 76.9 µM.

As for `CCCC(=O)Nc1ccccc1N1CCN(C(=O)c2ccccc2)CC1`, the Potency was inactive: > 76.9 µM.

As for `CC1Oc2ccccc2N(Cc2ccccc2F)C1=O` (configuration not stated), the Potency was inactive: > 76.9 µM.

As for `COc1ccc(OC)c(NC(=O)c2cc(S(=O)(=O)NCc3ccco3)ccc2F)c1`, the Potency is active: 5.32 µM.

Turning to `NS(=O)(=O)c1ccc(CCNc2ncnc3sccc23)cc1`, the Potency was inactive: > 76.9 µM.

For `COc1ccccc1NC(=O)CN1CCN(CC(=O)Nc2ccc(OCc3ccccc3)cc2)CC1`, the Potency was active: 10.2 µM.

On to `O=C(Nc1ccc(NC(=O)c2ccco2)nc1)c1cccnc1`, for which the Potency is inactive: > 76.9 µM.

`CCOc1cc2c(cc1OCC)C(C(=O)O)C(c1cc(Br)c(O)c(OC)c1)N(C)C2=O` (configuration not stated): the Potency is inactive: > 76.9 µM.

Take `Cc1nn(-c2nc3ccccc3[nH]2)c(N)c1-c1ccccc1`: the Potency was inactive: > 76.9 µM.

For `O=C(Nc1ccc2c(c1)OCO2)c1c(Cl)nc2sccn12`, the Potency is inactive: > 76.9 µM.

Take `CC1(C)C(c2ccccc2)=NC(c2ccc(F)cc2)N1O` (configuration not stated): the Potency was inactive: > 76.9 µM.

As to `Cc1ccc2c(c1)C(O)(CC(=O)c1cccnc1)C(=O)N2` (configuration not stated), the Potency was inactive: > 76.9 µM.

For the compound `COc1ccc2c(c1)c(C(=O)CN1CCN(C(=O)c3ccco3)CC1)c(C)n2C`, the Potency was inactive: > 76.9 µM.

Regarding `CCOC(=O)C1CCN(CC(=O)Nc2c(C(=O)OC)[nH]c3cccc(C)c23)CC1`, the Potency was inactive: > 76.9 µM.

On to `Cc1ccc(C2N(c3nccs3)C(=O)C3CCCN32)cc1` (configuration not stated), for which the Potency was inactive: > 76.9 µM.

For the compound `CCOC(=O)c1cnc(-n2nc(C)cc2C)nc1NCCc1ccccc1`, the Potency was inactive: > 76.9 µM.

For the compound `CSc1nc2ccc(S(=O)(=O)N3CCOCC3)cc2s1`, the Potency was inactive: > 76.9 µM.

As to `Cc1nc2nc(C)c(CCC(=O)NC(C)c3ccc4c(c3)OCCO4)c(C)n2n1` (configuration not stated), the Potency was inactive: > 76.9 µM.

Regarding `COc1ccccc1C1CC(c2ccc(C)cc2)Nc2ncnn21` (configuration not stated), the Potency was inactive: > 76.9 µM.

For the compound `CN1CCN(/C=N/c2c(C#N)cnn2Cc2ccccc2)CC1`, the Potency is inactive: > 76.9 µM.

As for `c1cc(Nc2ncnc3sccc23)cc(-c2nnc3n2CCCCC3)c1`, the Potency was inactive: > 76.9 µM.

`COC(=O)c1ccc(NC(=O)C2CCCO2)cc1` (configuration not stated): the Potency was inactive: > 76.9 µM.

With `Nc1nnnn1/N=C/c1ccccc1OCc1ccc(Cl)cc1Cl`, the Potency was inactive: > 76.9 µM.

On to `COc1cccc(-n2c(COc3ccc(C)cc3)nnc2SCC(N)=O)c1`, for which the Potency is inactive: > 76.9 µM.

As for `O=C1CCCC2=C1C1(CCCCC1)N=C(Nc1nc3ccccc3s1)N2`, the Potency was inactive: > 76.9 µM.

For `O=C(O)c1cc2ccc3ccccc3c2[nH]1`, the Potency is inactive: > 76.9 µM.

For `CC(=O)NC(=O)NC1OC(=O)C(Cl)=C1Cl` (configuration not stated), the Potency is inactive: > 76.9 µM.

Consider `CCc1cc(=O)oc2cc(C)cc(OCc3nn[nH]n3)c12`, for which the Potency is inactive: > 76.9 µM.

In the case of `CS(=O)(=O)c1ccc2nc(NC3(C(F)(F)F)N=C4SCCN4C3=O)sc2c1` (configuration not stated), the Potency was inactive: > 76.9 µM.

As to `COc1ccc(NC(=O)CNc2cccc(C#N)c2)cc1Cl`, the Potency was inactive: > 76.9 µM.

For `COc1ccc2c(c1)NC1(O)c3ccccc3C(=O)C21O` (configuration not stated), the Potency is inactive: > 76.9 µM.

As to `c1ccc(CSc2nnc(-c3ccco3)n2Cc2ccco2)cc1`, the Potency is inactive: > 76.9 µM.

`CC(C)c1nnc(NC(=O)Cn2nc(-c3ccc4c(c3)OCCO4)ccc2=O)s1`: the Potency entry is “inactive”.

As for `O=C(Nc1ccccc1)c1ccc(NCc2ccco2)c(S(=O)(=O)N2CCOCC2)c1`, the Potency was inactive: > 76.9 µM.

As to `Cc1ccc(NC(=O)c2nnn(CC(=O)Nc3ccccc3)c2N)cc1C`, the Potency was inactive: > 76.9 µM.

On to `CCOC(=O)N1CCN(c2cc(C)c(C(C)=O)cc2F)CC1`, for which the Potency was inactive: > 76.9 µM.

Turning to `Cc1ccc(-c2nc(-c3ccccn3)no2)cc1Cl`, the Potency was inactive: > 76.9 µM.

On to `O=C(CN1CCCN(S(=O)(=O)c2ccc(F)cc2)CC1)Nc1ccccc1Br`, for which the Potency was inactive: > 76.9 µM.

Regarding `CCc1nc(C)cn1S(=O)(=O)c1cc(Br)c(C)cc1OC`, the Potency is inactive: > 76.9 µM.

On to `CN1C(=O)CC(N2CCN(C(c3ccccc3)c3ccccc3)CC2)C1=O` (configuration not stated), for which the Potency was inactive: > 76.9 µM.

As for `c1ccc(-c2nn3c(C4COc5ccccc5O4)nnc3s2)cc1` (configuration not stated), the Potency was inactive: > 76.9 µM.

In the case of `COc1cc(CNC2CCCC2)cc(OC)c1OC`, the Potency is inactive: > 76.9 µM.

For the compound `CC12CCC3(CO)COC(c4ccccc4O1)C2C3` (configuration not stated), the Potency is inactive: > 76.9 µM.

For the compound `COc1ccc(S(=O)(=O)Nc2cc(C(C)C)c(O)cc2C)cc1`, the Potency was inactive: > 76.9 µM.

For `O=C(Nc1ccccc1)N(CCN1CCOCC1)Cc1cccc(Cl)c1`, the Potency result is “inactive”.

As to `CSc1nnc([C@H](C)NC(=O)OC(C)(C)C)o1`, the Potency was inactive: > 76.9 µM.

Regarding `C(=C\c1ccccc1)/CSc1nnc(-c2cnccn2)n1Cc1ccco1`, the Potency is inactive: > 76.9 µM.
